Target: T1, neutravidin tetramer, P02701
T1 chain: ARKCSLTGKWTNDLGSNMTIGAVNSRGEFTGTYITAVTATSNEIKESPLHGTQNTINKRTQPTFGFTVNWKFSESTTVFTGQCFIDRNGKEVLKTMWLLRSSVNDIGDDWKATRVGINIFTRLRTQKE
Assay: native MS; nanoelectrospray, 200 mM ammonium acetate, or charge-reduced in 160 mM ammonium acetate with 40 mM TEAA or EDDA; 5–10 μM protein complex; cyclic IMS (cIMS) and Synapt G2; TRAP with 14 equivalents of trp
Details: remark: other sources report otherwise

stoichiometry N: 4
B1: neutravidin tetramer, P02701 25-152 (natural protein)
chain: T1 chain

— PMC8574189
